The values below come from patent US8551954B2, “Antimicrobial peptides with heparin binding activity” (Pergamum AB, priority 2003, dated 2013).

One test relates to Pseudomonas aeruginosa. As to the kind of experiment: Electron microscopy analysis of bacteria subjected to antimicrobial peptides. The conditions noted are these: peptide at ~50% of the required bactericidal concentration. The class given is cell-based. The procedure:
(A) Control. (B-H) Analysis of bacteria treated with peptides at 50% of the required bactericidal concentration. HKH20 was also analysed at 200%.
On to LL-37 [reference compound], for which the “morphology of treated bacteria (electron microscopy)” value was “local perturbations and breaks along P. aeruginosa bacterial cell membranes”.

Another test concerns E. faecalis. In words: Bactericidal (colony-forming unit) assay of histidine-rich peptides with or without zinc. It counts as cell-based, Enterococcus faecalis.
Conditions: not given
Here is the method:
FIG. 3 describes bactericidal effects of histidine-rich peptides. E. faecalis bacteria were grown to mid-logarithmic phase in Todd-Hewitt (TH) medium. Bacteria were washed and diluted in either 10 mM Tris, pH 7.4, containing 5 mM glucose with or without 50 μM ZnCl or 10 mM MES-buffer, 5 mM glucose, pH 5.5. Bacteria (50 μl; 2×10^6 cfu/ml) were incubated, at 37° C. for 2 hours, with the synthetic peptide at concentrations ranging from 0.03 to 60 μM (Tris-buffer with or without zinc), or 30 and 60 uM (Tris and MES-buffer). To quantify the bactericidal activity, serial dilutions of the incubation mixture were plated on TH agar, followed by incubation at 37° C. overnight and the number of colony-forming units was determined. […] SEQ ID NO:4) and kininogen (KHN20: SEQ ID NO:3, GGH20: SEQ ID NO:2 and HKH20: SEQ ID NO:1) in the presence or absence of 50 uM ZnCl are shown. (B): Effects of peptides (30 and 60 uM) in 10 mM Tris, pH 7.4, containing 5 mM glucose or 10 mM MES-buffer, 5 mM glucose, pH 5.5. The numbers indicate % survival where 100% is control (without peptide). (C): Effects of peptides AHH24: 1 and AHH24:2 on E. faecalis in the presence of a fixed peptide/zinc molar ratio (1:100).
Consider “AHHAHAAHHA HAAHHAHAAH HAHA (AHHAHAAHHAHAAHHAHAAHHAHA; derived from synthetic K-H sequence) [AHH24:1]”, for which the “antimicrobial activity on E. faecalis without zinc” value is recorded as “no antimicrobial activity”.
As to “AHHHAAHAAH HHAAHAAHHH AAHA (AHHHAAHAAHHHAAHAAHHHAAHA; derived from synthetic K-H sequence) [AHH24:2]”, the “antimicrobial activity on E. faecalis without zinc” value is listed as “no antimicrobial activity”.

A further test has as its system E. coli. As to the kind of experiment: Radial diffusion assay (RDA). The class given is cell-based, Escherichia coli. The note with it: peptide 100 μM; (diameter of clear zone in mm - well diameter) x 10; 18-24 h at 37° C. The procedure: Radial diffusion assays (RDA) were performed essentially as described earlier (Andersson et al., Eur J Biochem, 2004, 271:1219-1226). Briefly, bacteria (E. coli) or fungi (C. albicans) were grown to mid-logarithmic phase in 10 ml of full-strength (3% w/v) trypticase soy broth (TSB) (Becton-Dickinson, Cockeysville, Md.). The microorganisms were washed once with 10 mM Tris, pH 7.4. 4×10^6 bacterial cfu or 1×10^5 fungal cfu was added to 5 ml of the underlay agarose gel, consisting of 0.03% (w/v) TSB, 1% (w/v) low-electroendosmosistype (Low-EEO) agarose (Sigma, St Louise Mo.) and a final concentration of 0.02% (v/v) Tween 20 (Sigma). The underlay was poured into a Ø 85 mm petri dish. After agarose solidified, 4 mm-diameter wells were punched and 6 μl of test sample was added to each well. Plates were incubated at 37° C. for 3 hours to allow diffusion of the peptides. The underlay gel was then covered with 5 ml of molten overlay (6% TSB and 1% Low-EEO agarose in dH2O). Antimicrobial activity of a peptide is visualized as a clear zone around each well after 18-24 hours of incubation at 37° C. Synthetic peptides were tested in concentrations of 100 μM to determine the antibacterial effect relative the known peptide LL-37. To minimize variation between experiments, a LL-37 standard (100 μM) was included on each plate. The activities of the peptides are presented in radial diffusion units ((diameter of clear zone in millimeters—well diameter)×10).
In the case of “AKKARAAKKA RAAKKARAAK KARA (AKKARAAKKARAAKKARAAKKARA) [AKK24]”, the Radial diffusion units is on record as 67 radial diffusion units.
In the case of “AKKQRFRHRN RKGYR (AKKQRFRHRNRKGYR; derived from vitronectin) [AKK15, peptide derived from Vitronectin]”, the Radial diffusion units amounted to 101 radial diffusion units.
As to “ARKKAAKAAR KKAAKAARKK AAKA (ARKKAAKAARKKAAKAARKKAAKA) [ARK24]”, the Radial diffusion units is recorded as 74 radial diffusion units.
The substance “CNYITELRRQHARASHLGLAR (derived from complement factor C3) [CNY21, peptide derived from C3a]” had a Radial diffusion units of 32 radial diffusion units.
For “KDFLSIELFR GRVKV (KDFLSIELFRGRVKV; derived from laminin) [KDF15, peptide derived from Laminin-α1]”, the Radial diffusion units amounted to 65 radial diffusion units.
“LGTRLRAQSR QRSRPGRWHK VSVRW (LGTRLRAQSRQRSRPGRWHKVSVRW; derived from laminin) [LGT25, peptide derived from Laminin-α5]” yielded a Radial diffusion units of 85 radial diffusion units.
Take LL-37 [reference compound]: the Radial diffusion units is on record as 50 radial diffusion units.
In turn, “PGRWHKVSVR W (PGRWHKVSVRW; derived from laminin) [PGR11, text: α5 chain)]” had a Radial diffusion units of 86 radial diffusion units.
“PPPPLTSASK AIQVFLLGGS RKRVL (PPPPLTSASKAIQVFLLGGSRKRVL; derived from laminin) [PPP25, peptide derived from Laminin-α5]” had a Radial diffusion units of 81 radial diffusion units.
Turning to “QPPRARITGY IIKYEKPG (QPPRARITGYIIKYEKPG; derived from fibronectin) [QPP18, peptide derived from Fibronectin]”, the Radial diffusion units worked out at 59 radial diffusion units.
“RIQNLLKITNLRIKFVKL (derived from laminin) [RIQ18, peptide derived from Laminin-β1]” registered a Radial diffusion units of 93 radial diffusion units.
On the same count and under the same terms, as for “RLRAQSRQRS RPGRWHKVSV RW (RLRAQSRQRSRPGRWHKVSVRW; derived from laminin) [RLR22, peptide derived from Laminin-α5]”, the figure is 92 radial diffusion units; as for “SAVRKKLSVE LSIRT (SAVRKKLSVELSIRT; derived from laminin) [SAV15, peptide derived from Laminin-α1]”, 75 radial diffusion units.
In turn, “SRNLSEIKLL ISQARKQAAS IKVAVSADR (SRNLSEIKLLISQARKQAASIKVAVSADR; derived from laminin) [SRN29, peptide derived from Laminin-α1]” yielded a Radial diffusion units of 71 radial diffusion units.
“SRNLSEIKLLISQARK (derived from laminin) [SRN16, peptide derived from Laminin-α1]” yielded a Radial diffusion units of 77 radial diffusion units.
Same read-out and setting: the figure for “YIGLKDRKRP SELRRIASQV KYA (YIGLKDRKRPSELRRIASQVKYA; derived from von willebrand factor) [YIG23, peptide derived from Von Willebrand Factor]” is 80 radial diffusion units.

Another test has as its system Enterococcus faecalis (isolate 2374). As to the kind of experiment: Bactericidal (colony-forming unit) assay of arginine and lysine-rich peptides. It counts as cell-based. The conditions noted are these: 0.03 to 60 μM peptide, 10 mM Tris pH 7.4, 5 mM glucose, 37° C. 2 hours. Here is the method:
FIG. 1 describes bactericidal effects of arginine and lysine-rich peptides (Sequence listing) on Enterococcus faecalis. Bacteria were grown to mid-logarithmic phase in Todd-Hewitt (TH) medium. Bacteria were washed and diluted in either 10 mM Tris, pH 7.4, containing 5 mM glucose Bacteria (50 μl; 2×10^6 cfu/ml) were incubated, at 37° C. for 2 hours, with the synthetic peptide at concentrations ranging from 0.03 to 60 μM. To quantify the bactericidal activity, serial dilutions of the incubation mixture were plated on TH agar, followed by incubation at 37° C. overnight and the number of colony-forming units was determined. 2×10^6 colony-forming units (CFU)×ml^-1 of E. faecalis (isolate 2374) were incubated in 50 μl with peptides at concentrations ranging from 0.03 to 60 μM. (A) Synthetic peptides derived from laminin. Effect of peptides from the LG-domain of the α5 chain (PPP25: SEQ ID NO:13, LGT25: SEQ ID NO:12, RLR22: SEQ ID NO:14, PGR11: SEQ ID NO:15) and α1 chain (SRN16: SEQ ID NO:8, SRN29:SEQ ID NO:9, KDF15:SEQ ID NO:10, SAV15:SEQ ID NO:11) are shown. One peptide (RIQ18:SEQ ID NO:16) is derived from the β1 chain. (B) Three peptides are derived from the complement factor C3 (LRK26:SEQ ID NO:5, LGE27:SEQ ID NO:6 and CNY21:SEQ ID NO:7), AKK15 from vitronectin, SEK20:SEQ ID NO: 19 from the protein C inhibitor, QPP18:SEQ ID NO:17 from fibronectin, and YIG23:SEQ ID NO:18 from the von Willebrand factor.
Regarding “GHRPLDKKREEAPSLRPA (completely synthesized, derived from heparin-binding consensus sequence)”, the “antimicrobial effect on E. faecalis” value was “not antimicrobial”.
As for “KNNQKSEPLIGRKKT (completely synthesized, derived from heparin-binding consensus sequence)”, the “antimicrobial effect on E. faecalis” value is “not antimicrobial”.
For the substance “LVTSKGDKELRTGKEKVTS (completely synthesized, derived from heparin-binding consensus sequence)”, the “antimicrobial effect on E. faecalis” value is on record as “not antimicrobial”.
